# Test results taken from the supplement of paper PMC8728848.
# This is one part of the list.
# Assays:
# Assay in all cases: glycan array binding signal (z-score within array); higher = stronger binding
# Conditions in all cases: glycan notation: IUPAC condensed, linker removed
# [1] = target: GlcNAc(b1-4)GlcNAc(b1-4)GlcNAc(b1-4)GlcNAc(b1-4)GlcNAc(b1-4)GlcNAc
# Procedure, shortened: (§1)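 Glycan array binding is given as a within-array Z-score, which can be read as non-binding when negative. The arrays, 3228 of them, came from the Consortium for Functional Glycomics database and were retained only where the protein sequence was available. Z-scores were averaged across arrays of the same protein sequence at different concentrations or buffers and across linkers.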
# [2] = target: GlcNAc(b1-4)[GlcNAc(b1-6)]GalNAc
# Procedure, shortened: as §1
# [3] = target: GlcNAc(b1-6)Gal(b1-4)GlcNAc
# Procedure, shortened: as §1
# [4] = target: GlcNAc(b1-6)GalNAc
# Procedure, shortened: as §1
# [5] = target: Kdn(a2-3)Gal(b1-3)GlcNAc
# Procedure, shortened: as §1
# [6] = target: Kdn(a2-3)Gal(b1-4)GlcNAc
# Procedure, shortened: as §1
# [7] = target: Man(a1-2)Man(a1-2)Man(a1-3)Man
# Procedure, shortened: as §1
# [8] = target: Man(a1-2)Man(a1-2)Man(a1-3)[Man(a1-2)Man(a1-3)[Man(a1-2)Man(a1-6)]Man(a1-6)]Man(b1-4)GlcNAc(b1-4)GlcNAc
# Procedure, shortened: as §1
# [9] = target: Man(a1-2)Man(a1-2)Man(a1-3)[Man(a1-2)Man(a1-6)[Man(a1-3)]Man(a1-6)]Man(b1-4)GlcNAc(b1-4)GlcNAc
# Procedure, shortened: as §1
# [10] = target: Man(a1-2)Man(a1-2)Man(a1-6)[Man(a1-3)]Man
# Procedure, shortened: as §1
# [11] = target: Man(a1-2)Man(a1-3)Man
# Procedure, shortened: as §1
# [12] = target: Man(a1-2)Man(a1-3)[Man(a1-2)Man(a1-6)]Man
# Procedure, shortened: as §1
# [13] = target: Man(a1-2)Man(a1-3)[Man(a1-3)[Man(a1-6)]Man(a1-6)]Man(b1-4)GlcNAc(b1-4)GlcNAc
# Procedure, shortened: as §1
# [14] = target: Man(a1-2)Man(a1-3)[Man(a1-6)]Man(a1-6)[Man(a1-2)Man(a1-3)]Man(b1-4)GlcNAc(b1-4)GlcNAc
# Procedure, shortened: as §1
# [15] = target: Man(a1-3)[Man(a1-6)]Man
# Procedure, shortened: as §1
# [16] = target: Man(a1-3)[Man(a1-6)]Man(a1-6)[Man(a1-3)]Man(b1-4)GlcNAc(b1-4)GlcNAc
# Procedure, shortened: as §1
# [17] = target: Man(a1-3)[Man(a1-6)]Man(b1-4)GlcNAc(b1-4)GlcNAc
# Procedure, shortened: as §1
# [18] = target: Man(b1-4)GlcNAc
# Procedure, shortened: as §1
# [19] = target: Neu5Ac(a2-3)Gal
# Procedure, shortened: as §1
# [20] = target: Neu5Ac(a2-3)Gal(b1-3)GalNAc
# Procedure, shortened: as §1
# [21] = target: Neu5Ac(a2-3)Gal(b1-3)GalNAc(b1-3)Gal(a1-4)Gal(b1-4)Glc
# Procedure, shortened: as §1
# [22] = target: Neu5Ac(a2-3)Gal(b1-3)GalNAc(b1-4)[Neu5Ac(a2-3)]Gal(b1-4)Glc
# Procedure, shortened: as §1
# [23] = target: Neu5Ac(a2-3)Gal(b1-3)GalNAc6S
# Procedure, shortened: as §1
# [24] = target: Neu5Ac(a2-3)Gal(b1-3)GlcNAc
# Procedure, shortened: as §1
# [25] = target: Neu5Ac(a2-3)Gal(b1-3)GlcNAc(b1-3)Gal(b1-3)GlcNAc
# Procedure, shortened: as §1
# [26] = target: Neu5Ac(a2-3)Gal(b1-3)GlcNAc(b1-3)Gal(b1-4)GlcNAc
# Procedure, shortened: as §1
# [27] = target: Neu5Ac(a2-3)Gal(b1-3)GlcNAc6S
# Procedure, shortened: as §1
# [28] = target: Neu5Ac(a2-3)Gal(b1-3)[Fuc(a1-4)]GlcNAc
# Procedure, shortened: as §1
# [29] = target: Neu5Ac(a2-3)Gal(b1-3)[Fuc(a1-4)]GlcNAc(b1-3)Gal(b1-4)[Fuc(a1-3)]GlcNAc
# Procedure, shortened: as §1
# [30] = target: Neu5Ac(a2-3)Gal(b1-3)[Neu5Ac(a2-3)Gal(b1-4)]GlcNAc
# Procedure, shortened: as §1
# [31] = target: Neu5Ac(a2-3)Gal(b1-3)[Neu5Ac(a2-6)]GalNAc
# Procedure, shortened: as §1
# [32] = target: Neu5Ac(a2-3)Gal(b1-4)Glc
# Procedure, shortened: as §1
# [33] = target: Neu5Ac(a2-3)Gal(b1-4)GlcNAc
# Procedure, shortened: as §1
# [34] = target: Neu5Ac(a2-3)Gal(b1-4)GlcNAc(b1-3)Gal(b1-3)GlcNAc
# Procedure, shortened: as §1
# [35] = target: Neu5Ac(a2-3)Gal(b1-4)GlcNAc(b1-3)Gal(b1-4)GlcNAc
# Procedure, shortened: as §1
# [36] = target: Neu5Ac(a2-3)Gal(b1-4)GlcNAc(b1-3)Gal(b1-4)GlcNAc(b1-3)Gal(b1-4)GlcNAc
# Procedure, shortened: as §1
binder,measurement,setting,value
STA (Solanum tuberosum) (protein) NASAPLPYPQCGLKKGGGKCIKTGECCSIWGWCGTTSDYCAPGYCQKQCPGPYPQGRCGWQANGKSCPTGTGQCCSNAGWCGTTSDYCAPNNCQSQCKLPPPPPSPPPPPPSPPPPSPPPPPPSPPPPSPSPPPPPPSPPPPSPPPPSPPPPSPPPPPSPSPPPPPPSPPPPPPPLPYPQCGMKKGGGKCIKTGECCSIWGWCGTTSKYCSPGYCQMQCPDPYPEGRCGWQANGKSCPTGTGQCCSNAGWCGTTSAYCAPVNCQAQCNTTTLTSPIKNRMRGIESFMLNVV,glycan array binding signal (z-score),[1],2.56
same,glycan array binding signal (z-score),[2],1.43
same,glycan array binding signal (z-score),[3],1.96
same,glycan array binding signal (z-score),[4],2.41
same,glycan array binding signal (z-score),[5],-0.512
same,glycan array binding signal (z-score),[6],2.19
same,glycan array binding signal (z-score),[7],-0.509
same,glycan array binding signal (z-score),[8],0.273
same,glycan array binding signal (z-score),[9],-0.15
same,glycan array binding signal (z-score),[10],-0.506
same,glycan array binding signal (z-score),[11],-0.503
same,glycan array binding signal (z-score),[12],-0.511
same,glycan array binding signal (z-score),[13],0.407
same,glycan array binding signal (z-score),[14],0.29
same,glycan array binding signal (z-score),[15],-0.506
same,glycan array binding signal (z-score),[16],0.27
same,glycan array binding signal (z-score),[17],0.407
same,glycan array binding signal (z-score),[18],-0.504
same,glycan array binding signal (z-score),[19],-0.507
same,glycan array binding signal (z-score),[20],-0.512
same,glycan array binding signal (z-score),[21],-0.501
same,glycan array binding signal (z-score),[22],-0.502
same,glycan array binding signal (z-score),[23],-0.5
same,glycan array binding signal (z-score),[24],-0.502
same,glycan array binding signal (z-score),[25],-0.51
same,glycan array binding signal (z-score),[26],0.185
same,glycan array binding signal (z-score),[27],-0.492
same,glycan array binding signal (z-score),[28],-0.518
same,glycan array binding signal (z-score),[29],-0.408
same,glycan array binding signal (z-score),[30],-0.505
same,glycan array binding signal (z-score),[31],-0.513
same,glycan array binding signal (z-score),[32],-0.506
same,glycan array binding signal (z-score),[33],1.74
same,glycan array binding signal (z-score),[34],-0.49
same,glycan array binding signal (z-score),[35],1.03
same,glycan array binding signal (z-score),[36],1.29
